These results are taken from ChEMBL document CHEMBL1201862, “PubChem BioAssay data set” (2004).

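Following 48 hours of exposure in 96-well plates, responses at five concentrations were used to interpolate endpoints linearly. At the GI50, growth is halved.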 Activity calls are given as the source filed them. No stated cut-off is given here; in the data, active = GI50 up to about 1.1 µM and inactive = higher.

This experiment relates to NCI-H322M. Description: growth of human tumour cells (NCI), 48 h.
On to `COc1ccc(Nc2c[nH]c(=O)[nH]c2=O)cc1`, for which the GI50 is inactive: > 100 µM. Under `COc1cc(C)c(C2NC(=O)c3ccccc3N2)cc1C` (stereo not drawn) stands inactive: 1.52 µM; under `CN(C)CCNS(=O)(=O)c1ccc(N)cc1`, inactive: > 100 µM. The same measure for `COC(C/C=C\C=C\CC/C=C/CC(C)/C=C/C(=C\C(=O)O)CC(=O)O)/C(C)=C\C=C(/C)C(=O)O` (stereo not drawn): inactive: > 100 µM; for `C=C1CC23CCC4C(C)(C(=O)O)CCCC4(C)C2CCC1C3` (stereo not drawn): inactive: 37.4 µM; for `Clc1ccc(-c2nnc3c4nnc(-c5ccc(Cl)cc5Cl)n4c4ccccc4n23)c(Cl)c1`: inactive: > 100 µM.

With `CN(C)CCNC(=O)Cn1cc([N+](=O)[O-])c(=O)c2ccccc21`, the GI50 was inactive: > 100 µM. In the case of `COC(=O)C1Cc2cccc(C)c2C1` (stereo not drawn), the GI50 was inactive: > 100 µM. The same measure for `CCOc1ccc(/C(Cl)=C(\C=O)c2ccc(OC)c(OC)c2)cc1OCC`: inactive: 52.6 µM; for `O=C1Nc2ccccc2/C1=N/Nc1nc(-c2ccc([N+](=O)[O-])cc2)cs1`: inactive: 22.6 µM. The same measure for `CC(=O)Nc1ccc(C(=O)NN2C(=O)C(Cl)C2c2ccc([N+](=O)[O-])cc2)cc1` (stereo not drawn): inactive: > 100 µM; for `Cc1cc(C)n(CN(Cn2nc(C)cc2C)C2CCCCC2)n1`: inactive: > 100 µM; for `Brc1ccc2[nH]cc(-c3nc(-c4c[nH]c5ccccc45)cs3)c2c1`: inactive: 3.02 µM. Under `NC(=O)c1cc2ccc(O)cc2o/c1=N/NC(=O)c1ccccc1` stands inactive: 83.6 µM. As for `COC(=O)CCC(=O)C(C#N)c1ccc(Cl)cc1Cl` (stereo not drawn), the GI50 is inactive: > 100 µM. With `COC(=O)C1=C(C(=O)Nc2cccnc2Cl)N(c2ccc(OC)cc2[N+](=O)[O-])C(c2ccc(C)cc2)=CC1c1ccc(OC)cc1OC` (stereo not drawn), the GI50 is inactive: 16.1 µM.

On to `Cc1cc(C(O)CNC(C)CCn2cnc3c2c(=O)n(C)c(=O)n3C)ccc1O` (stereo not drawn), for which the GI50 is inactive: > 100 µM. The same measure for `COC1/C=C/C(C)C(OC)CC(O)/C=C/C(C)C(C(C)C(OC)C(C)CCC(=O)C(C)C(C/C=C/N(C)C=O)OC)OC(=O)/C=C/C=C(\C)CC(OC)CC2=CC(=O)O[C@@H](C(C)C(OC)C1)[C@H]2O` (stereo partly drawn): active: 0.404 µM; for `O=[N+]([O-])c1cc(I)cc(/C=N/NS(=O)(=O)c2ccc(F)cc2)c1O`: inactive: 26.9 µM; for `COc1ccc(Oc2nc3c(N)cc(C(F)(F)F)cc3nc2-c2ccccc2)cc1`: inactive: 25.2 µM.

Take `CCc1oc2ccc(OC)c3c2c1C=CC=C3`: the GI50 was inactive: > 100 µM. Under `CCC1OC2C(CC=C(C)C)=C3OC(C)(O)C(C)(CC)C(=O)C3=C3OC(=O)C=C1C32` (stereo not drawn) stands inactive: 29.7 µM; under `CN1C(=O)C(=CNc2ccccc2Cl)C(=O)N(C)C1=O`, inactive: 31.6 µM. The same measure for `CC(C)c1c(O[Si](C(C)C)(C(C)C)C(C)C)c2c3c(ccc4c3c1OC4(C)C)C(C)CC2` (stereo not drawn): inactive: > 100 µM; for `O=C1CN(c2cccc(Cl)c2)C(=O)CN1NCNN1CC(=O)N(c2cccc(Cl)c2)CC1=O`: inactive: > 100 µM.

Consider `CC(=O)NC1C(OCc2ccccc2)OC(CO)C(O)C1OC(C)C(=O)NC(C(=O)NC(CCC(=O)NCCCCNc1c2ccccc2nc2cccc([N+](=O)[O-])c12)C(N)=O)C(C)C` (stereo not drawn), for which the GI50 is inactive: 4.13 µM. The same measure for `N#Cc1c(-c2ccccc2)c(/C=N/c2cccc(C(F)(F)F)c2)c(=O)n2c1[nH]c1ccccc12`: inactive: 13.8 µM; for `N#CCC(=O)NC1C2CC3CC(C2)CC1C3` (stereo not drawn): inactive: 18.5 µM. Under `COC(=O)CN(C)P(=O)(N1CC1)N1CC1` stands inactive: > 100 µM; under `COc1cc(/C=C2\N=C(c3ccccc3)N(c3nc4ccc(Sc5ccccc5)cc4[nH]3)C2=O)ccc1O`, inactive: 30.1 µM. The same measure for `C[n+]1c2ccccc2c(CNCC(=O)O)c2ccccc21`: inactive: 11 µM; for `C=CC1=C(C)/C(=C/C2=NC(=C\c3[nH]c(CC4NC(=O)C(C)/C4=C\C)c(C)c3CCC(=O)O)/C(CC(=O)O)=C2C)NC1=O` (stereo not drawn): inactive: > 100 µM; for `C1CCNCC1.S=C(S)N1CCCCC1`: inactive: 113 µM. For `CC(=O)O[C@H]1CC[C@@]2(C)C(=CC[C@@H]3C2CC[C@]2(C)Nc4[nH]ncc4CC32)C1` (stereo partly drawn), the GI50 is inactive: 45.7 µM. The same measure for `CC(=O)Nc1ccc(OC/C(N)=N/NC(=O)c2ccncc2)cc1`: inactive: > 100 µM; for `Cc1c(/C=N/NC(=S)Nc2ccc([N+](=O)[O-])cc2)c(=O)n(-c2ccccc2)n1C`: inactive: 12.8 µM. Under `CCC1c2[nH]c3ccccc3c2C[C@H]2C(=O)N3CCC[C@H]3C(=O)N12` (stereo partly drawn) stands inactive: > 100 µM; under `COc1ccccc1C(=O)N(Cc1ccccc1)c1ccc(Cl)c(C(=O)OC(C)C)c1`, inactive: 32.9 µM. Under `C=C1CC(C)(COc2ccc3c(C)c(Cl)c(=O)oc3c2)OC1=O` (stereo not drawn) stands inactive: 5.81 µM; under `CC(=O)N(CN1C(=O)CCC1C(=O)O)c1ccccc1` (stereo not drawn), inactive: > 56.1 µM; under `O=S(=O)(N/N=C1\CC2CCC1C2)c1ccccc1` (stereo not drawn), inactive: > 100 µM. In the case of `O=C(N1CCN(c2ccccc2)CC1)N(C(=O)C1(c2ccc(Cl)cc2)CCCC1)S(=O)(=O)c1ccccc1`, the GI50 was inactive: 29.3 µM. The same measure for `C#CCOCn1cnc2ncnc(N)c21`: inactive: > 100 µM; for `CCCCN(C)CC(C(C)=O)C(c1ccccc1)c1c(O)c2ccccc2oc1=O` (stereo not drawn): inactive: > 100 µM; for `N=C(N)NS(=O)(=O)c1ccc(NC(=O)c2cccc3c(NNc4ccc(S(N)(=O)=O)cc4)c4ccccc4nc23)cc1`: inactive: 81.3 µM. Under `CC1(CO)COC(C)(C)OC1` stands inactive: > 100 µM. Under `COC(=O)C1=C(C(=O)NNc2ccccc2)N(c2cccnc2Cl)C(c2ccccc2)=CC1c1ccccc1` (stereo not drawn) stands inactive: 43.7 µM; under `Cc1ccc(NC(=O)C(=O)CC(=O)C2CCOC2=O)c(C)c1` (stereo not drawn), inactive: > 100 µM. Consider `Cc1c(-c2ccccc2)n[nH]c1NC1(C)C(=O)N(/N=C/c2ccccc2)N=C1c1ccccc1` (stereo not drawn), for which the GI50 is inactive: > 100 µM.

As for `Cc1ccc2[nH]c3c(c2c1)CCC/C3=N/N=C(N)N`, the GI50 is inactive: 1.69 µM.

For `O=C1CCSC2=C1SCc1sccc12`, the GI50 is inactive: > 100 µM. Consider `COc1ccc(NC(/C(C(=O)c2ccccc2)=C(\O)C(=O)/C=C(\O)c2ccccc2)c2ccc(OC)cc2)cc1` (stereo not drawn), for which the GI50 was inactive: 40.7 µM. The same measure for `CCC(=O)OC[n+]1ccc2c(C)c3[nH]c4ccc(OC)cc4c3c(C)c2c1`: active: 0.0931 µM; for `O=C(OCC1CO1)c1cccs1` (stereo not drawn): inactive: > 100 µM; for `COc1ccc(NC/C=C/C(=C/COC(C)=O)OC(C)=O)cc1`: inactive: 7.45 µM. As for `COC(=O)/C=c1/c2ccccc2n2c1c1ccccc1[n+]2C`, the GI50 was inactive: 4.8 µM.

For `O=C(NC(=O)c1cn(CCN(CCO)C(=O)NCCCCCCNC(=O)N(CCO)CCn2cc(C(=O)NC(=O)OCc3ccccc3)c(=O)[nH]c2=O)c(=O)[nH]c1=O)OCc1ccccc1`, the GI50 was inactive: > 100 µM. For `O=P1(Oc2ccccc2)NCc2ncccc2O1` (stereo not drawn), the GI50 is inactive: > 100 µM. The same measure for `O=C(Nc1ccc(Cl)cc1C(F)(F)F)C(=O)Nn1c(S)nc2ccccc2c1=O`: inactive: > 100 µM; for `CCCN1C(=O)/C(=C\c2ccc(OC)c(OC)c2)S/C1=N\c1ccccc1`: inactive: > 100 µM; for `CN(/N=C/c1cccc2cccnc12)c1ccc(Cl)cc1[N+](=O)[O-]`: inactive: > 100 µM. The same measure for `COC1/C=C\C=C(/C)C(=O)Nc2cc3nc4ccc(Br)cc4oc-3c(c2=O)CC(C)CC(OC)C(O)C(C)/C=C(\C)C1OC(N)=O` (stereo not drawn): inactive: 10.2 µM; for `N#CC(C#N)=C/C=C/c1ccccc1[N+](=O)[O-]`: inactive: > 10 µM; for `C[N+](C)(C)CC(=O)N/N=C(/C=C/c1ccccc1)CC1OC(=O)c2ccccc21` (stereo not drawn): inactive: > 100 µM. The same measure for `CCC(=O)Nc1ccc(NC(C#N)c2cccc(Oc3ccccc3)c2)cc1` (stereo not drawn): inactive: 82.4 µM; for `Cc1nc2c(n1CCCl)C(=O)c1ccccc1C2=O`: inactive: 35.9 µM; for `O=c1c(Sc2c(SCSc3cnc4ccccc4c3Sc3c[nH]c4ccccc4c3=O)cnc3ccccc23)c[nH]c2ccccc12`: inactive: > 100 µM. Take `COC(COC(=O)N1CCN(C=O)CC1)C1=C(N2CC2)C(=O)C(C)=C(N2CC2)C1=O` (stereo not drawn): the GI50 is inactive: 1.32 µM.

On to `CCCCc1c2c(nc3c1CCc1cc4cc5c(nc4nc1-3)-c1nc3c(c(CCCC)c1CC5)CCCC3)CCCC2`, for which the GI50 is inactive: 45.4 µM. The same measure for `CCOc1ccc(NC(=O)CC2SC(Nc3ccc(C)cc3)=NC2=O)cc1` (stereo not drawn): inactive: > 100 µM; for `CC1Cc2cc(O)ccc2C2[C@@H]1C1CC[C@H](O)[C@@]1(C)C[C@@H]2O[N+](=O)[O-]` (stereo partly drawn): inactive: 19.9 µM.

Turning to `CC1(C)O[C@H]2OC3CCC(=O)CC3(O)[C@H]2O1` (stereo partly drawn), the GI50 was inactive: > 100 µM.

As to `COc1cc(C2c3cc4c(cc3[C@@H](OCCN(C)C)C3COC(=O)[C@H]23)OCO4)cc(OC)c1O` (stereo partly drawn), the GI50 was inactive: 1.89 µM. For `CCOC(=O)c1[nH]c(Br)c(-c2ccc(Br)cc2)c1Br`, the GI50 is inactive: 4.45 µM.

With `c1ccc2c(c1)cc1ccc3cccc4ccc2c1c34`, the GI50 is inactive: 14.1 µM.

With `CC(=O)O[C@H]1C[C@H](O[C@H]2[C@@H](O)C[C@H](O[C@H]3[C@@H](O)C[C@H](O[C@H]4CC[C@@]5(C)[C@H](CC[C@@H]6[C@@H]5CC[C@]5(C)[C@@H](C7=CC(=O)OC7)CC[C@]65O)C4)O[C@@H]3C)O[C@@H]2C)O[C@H](C)[C@H]1O[C@@H]1O[C@H](CO)[C@@H](O)[C@H](O)[C@H]1O`, the GI50 was active: 0.016 µM. Under `CC1(C)N=C(N)N=C(N)N1c1cccc(Cl)c1` stands inactive: 20.9 µM; under `COc1cc(/C=C\c2ccccc2)cc(OC)c1OC`, inactive: 7.33 µM.
